Assay results as given in ChEMBL document CHEMBL1156245, “Structure-activity relationships for substrate-based inhibitors of human complement factor B” (J Med Chem, 2009).

Substrate: CC(=O)N[C@@H](CO)C(=O)N[C@@H](Cc1cnc[nH]1)C(=O)N[C@@H](CC(C)C)C(=O)NCC(=O)N[C@@H](CC(C)C)C(=O)N[C@@H](C)C(=O)N[C@@H](CCCNC(=N)N)C(=O)Nc1ccc([N+](=O)[O-])cc1
Assay: Activity at human complement factor B by chromogenic assay

B1: Complement factor B (Homo sapiens), P00751 (protein)
chain: MGSNLSPQLCLMPFILGLLSGGVTTTPWSLARPQGSCSLEGVEIKGGSFRLLQEGQALEYVCPSGFYPYPVQTRTCRSTGSWSTLKTQDQKTVRKAECRAIHCPRPHDFENGEYWPRSPYYNVSDEISFHCYDGYTLRGSANRTCQVNGRWSGQTAICDNGAGYCSNPGIPIGTRKVGSQYRLEDSVTYHCSRGLTLRGSQRRTCQEGGSWSGTEPSCQDSFMYDTPQEVAEAFLSSLTETIEGVDAEDGHGPGEQQKRKIVLDPSGSMNIYLVLDGSDSIGASNFTGAKKCLVNLIEKVASYGVKPRYGLVTYATYPKIWVKVSEADSSNADWVTKQLNEINYEDHKLKSGTNTKKALQAVYSMMSWPDDVPPEGWNRTRHVIILMTDGLHNMGGDPITVIDEIRDLLYIGKDRKNPREDYLDVYVFGVGPLVNQVNINALASKKDNEQHVFKVKDMENLEDVFYQMIDESQSLSLCGMVWEHRKGTDYHKQPWQAKISVIRPSKGHESCMGAVVSEYFVLTAAHCFTVDDKEHSIKVSVGGEKRDLEIEVVLFHPNYNINGKKEAGIPEFYDYDVALIKLKNKLKYGQTIRPICLPCTEGTTRALRLPPTTTCQQQKEELLPAQDIKALFVSEEEKKLTRKEVYIKNGDKKGSCERDAQYAPGYDKVKDISEVVTPRFLCTGGVSPYADPNTCRGDSGGPLIVHKRSRFIQVGVISWGVVDVCKNQKRQKQVPAHARDFHINLFQVLPWLKEKLQDEDLGFL
Km: 1000 µM
